According to paper PMC5892938:
The list shows a part of the results. At the low end of the ranking, values are background and their order means little.

Target: GST-SBP-SLBP (stem-loop binding protein) (UniProt Q14493)
Test: targeted RNA Bind-n-Seq;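 also: DESeq read counts versus GST-SBP nonspecific binding control pulldown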
Conditions: RBNS binding buffer: 25 mM Tris pH 7.5, 150 mM KCl, 3 mM MgCl2, 0.1% Tween, 0.5 mg/mL BSA, 1 mM DTT; 27 nM protein, 750 pM RNA pool; temperature not stated; high values mean tight binding

Sequence | binding signal (log2 fold change)
GGUCACGUCUCAAUCAACUCGUCUUCAGGAGUUUUCUCCUGUUAAUUCAACAGCUCGCAGUCAAG | -0.251
GGUCACGUCUCAAUCAACUCUAUUCCCAGGGAAAGCCCUGGCAAAUUCAACAGCUCGCAGUCAAG | -0.1
GGUCACGUCUCAAUCAACUCAACUCCCAGGGAAAUCCCUGGCUAUUUCAACAGCUCGCAGUCAAG | 0.0117
GGUCACGUCUCAAUCAACUCAAACGAGGGGGGGAAAACCCCUUUACCCUCAUCUUCAACAGCUCGCAGUCAAG | 0.145
GGUCACGUCUCAAUCAACUCCUCGGAGGGGGGGAAAACCCCUUUACCCUCACAUUCAACAGCUCGCAGUCAAG | 0.424
GGUCACGUCUCAAUCAACUCCUACGAGGGGGGGAAAACCCCUUUGCCCUCAAUUUCAACAGCUCGCAGUCAAG | -0.294
GGUCACGUCUCAAUCAACUCAUCCGAGGGGGGGAAAACCCCUUUACCCUCACCAUCAACAGCUCGCAGUCAAG | 0.0648
GGUCACGUCUCAAUCAACUCUUCGUCAGGAGUUUCCUCCUGUAAUUUCAACAGCUCGCAGUCAAG | 0.00832
GGUCACGUCUCAAUCAACUCAAUCCCCAGGGAAAGCCCUGGUAUUCUCAACAGCUCGCAGUCAAG | 0.378
GGUCACGUCUCAAUCAACUCUACUUCAGGAGUUUUCUCCUGUAUUUUCAACAGCUCGCAGUCAAG | 0.0968
GGUCACGUCUCAAUCAACUCAUCGUCCAGGGAAACCCCUGGUUAAUUCAACAGCUCGCAGUCAAG | -0.0853
GGUCACGUCUCAAUCAACUCCUACGAGGGGGGGAAAACCCCUUUACCCUCUAUCUCAACAGCUCGCAGUCAAG | -0.00918
GGUCACGUCUCAAUCAACUCAUUUUCCAGGGAAAACCCUGGUUAUCUCAACAGCUCGCAGUCAAG | -0.177
GGUCACGUCUCAAUCAACUCAACUCCAGGAGUUUCCUCCUGCAUUCUCAACAGCUCGCAGUCAAG | 0.167
GGUCACGUCUCAAUCAACUCAUCCGCAGGAGUUUCCUCCUGGUAUUUCAACAGCUCGCAGUCAAG | 0.483
GGUCACGUCUCAAUCAACUCAACUUCCAGGGAAAACCCUGGCUAUCUCAACAGCUCGCAGUCAAG | 0.0148
GGUCACGUCUCAAUCAACUCUUCUCCCAGGGAAAUCCCUGGUAUUUUCAACAGCUCGCAGUCAAG | -0.378
GGUCACGUCUCAAUCAACUCUACAGAGGGGGGGAAAACCCCUUUACCCUCAUCAUCAACAGCUCGCAGUCAAG | -0.245
GGUCACGUCUCAAUCAACUCUUCGUCCAGGGAAAGCCCUGGCAAUUUCAACAGCUCGCAGUCAAG | -0.252
GGUCACGUCUCAAUCAACUCAUCGCCAGGAGUUUCCUCCUGCUAUUUCAACAGCUCGCAGUCAAG | 0.0126
GGUCACGUCUCAAUCAACUCAUUUCCAGGAGUUUACUCCUGUUUAUUCAACAGCUCGCAGUCAAG | 0.0969
GGUCACGUCUCAAUCAACUCUACUCCCAGGGAAACCCCUGGCUAACUCAACAGCUCGCAGUCAAG | 0.0226
GGUCACGUCUCAAUCAACUCAAUUCCAGGAGUUUCCUCCUGCUUAUUCAACAGCUCGCAGUCAAG | 0.0231
GGUCACGUCUCAAUCAACUCAAUCCCCAGGGAAAGCCCUGGUAUACUCAACAGCUCGCAGUCAAG | -0.061
GGUCACGUCUCAAUCAACUCUUCUCCCAGGGAAAACCCUGGUAAUUUCAACAGCUCGCAGUCAAG | -0.0582

Sequence | binding signal (log2 fold change)
GGUCACGUCUCAAUCAACUCAAGUCCAGGAGUUUACUCCUGUAAUUUCAACAGCUCGCAGUCAAG | 0.0544
GGUCACGUCUCAAUCAACUCUUUCUCCAGGGAAAUCCCUGGUAAUCUCAACAGCUCGCAGUCAAG | -0.0514
GGUCACGUCUCAAUCAACUCAACUCCCAGGGAAAGCCCUGGUAUAUUCAACAGCUCGCAGUCAAG | -0.289
GGUCACGUCUCAAUCAACUCAAUGGAGGGGGGGAAAACCCCUUUACCCUCAUAAUCAACAGCUCGCAGUCAAG | 0.129
GGUCACGUCUCAAUCAACUCAUUUCCAGGAGUUUCCUCCUGUUAUCUCAACAGCUCGCAGUCAAG | -0.0243
GGUCACGUCUCAAUCAACUCAUCCUCAGGAGUUUGCUCCUGCUUUCUCAACAGCUCGCAGUCAAG | 0.0403
GGUCACGUCUCAAUCAACUCAAUUCCAGGAGUUUACUCCUGCAUUUUCAACAGCUCGCAGUCAAG | -0.0361
GGUCACGUCUCAAUCAACUCUAUUUCAGGAGUUUACUCCUGUAUAUUCAACAGCUCGCAGUCAAG | -0.0116
GGUCACGUCUCAAUCAACUCUCUAGAGGGGGGGAAAACCCCUUUACCCUCCGUUUCAACAGCUCGCAGUCAAG | -0.267
GGUCACGUCUCAAUCAACUCAAACGAGGGGGGGAAAACCCCUUUGCCCUCAAUCUCAACAGCUCGCAGUCAAG | -0.247
GGUCACGUCUCAAUCAACUCUUCCCCAGGAGUUUCCUCCUGCUAUUUCAACAGCUCGCAGUCAAG | 0.139
GGUCACGUCUCAAUCAACUCUAUUCCCAGGGAAAUCCCUGGUAAAUUCAACAGCUCGCAGUCAAG | -0.0186
GGUCACGUCUCAAUCAACUCUUUCUCAGGAGUUUCCUCCUGUUUAUUCAACAGCUCGCAGUCAAG | -0.0336
GGUCACGUCUCAAUCAACUCAAAAGAGGGGGGGAAAACCCCUUUACCCUCCGCAUCAACAGCUCGCAGUCAAG | -0.163
GGUCACGUCUCAAUCAACUCUACUCCAGGAGUUUUCUCCUGCAUACUCAACAGCUCGCAGUCAAG | -0.142
GGUCACGUCUCAAUCAACUCUUCCUCCAGGGAAAUCCCUGGUUAACUCAACAGCUCGCAGUCAAG | -0.132
GGUCACGUCUCAAUCAACUCAUCCUCAGGAGUUUUCUCCUGUUUUCUCAACAGCUCGCAGUCAAG | 0.197
GGUCACGUCUCAAUCAACUCAUCCUCCAGGGAAAGCCCUGGCAAUCUCAACAGCUCGCAGUCAAG | 0.184
GGUCACGUCUCAAUCAACUCUAUCGCAGGAGUUUCCUCCUGGUAUUUCAACAGCUCGCAGUCAAG | -0.201
GGUCACGUCUCAAUCAACUCAUCUCCAGGAGUUUCCUCCUGUAAUCUCAACAGCUCGCAGUCAAG | 0.137
GGUCACGUCUCAAUCAACUCUAUCCCCAGGGAAAACCCUGGUUAUUUCAACAGCUCGCAGUCAAG | 0.142
GGUCACGUCUCAAUCAACUCAUUCUCCAGGGAAACCCCUGGUUUUUUCAACAGCUCGCAGUCAAG | -0.0819
GGUCACGUCUCAAUCAACUCAUUCUCCAGGGAAACCCCUGGCUUAUUCAACAGCUCGCAGUCAAG | 0.273
GGUCACGUCUCAAUCAACUCUUCGUCAGGAGUUUCCUCCUGUAUUCUCAACAGCUCGCAGUCAAG | 0.18
GGUCACGUCUCAAUCAACUCUUCCUCCAGGGAAAACCCUGGCAAUCUCAACAGCUCGCAGUCAAG | -0.249

Sequence | binding signal (log2 fold change)
GGUCACGUCUCAAUCAACUCUACUUCCAGGGAAAUCCCUGGUAAAUUCAACAGCUCGCAGUCAAG | -0.359
GGUCACGUCUCAAUCAACUCAGAAGAGGGGGGGAAAACCCCUUUACCCUCACAAUCAACAGCUCGCAGUCAAG | 0.0361
GGUCACGUCUCAAUCAACUCAUCGUCCAGGGAAAUCCCUGGUAUAUUCAACAGCUCGCAGUCAAG | -0.145
GGUCACGUCUCAAUCAACUCUUCUCCAGGAGUUUUCUCCUGUUAUUUCAACAGCUCGCAGUCAAG | -0.0978
GGUCACGUCUCAAUCAACUCUCUCGAGGGGGGGAAAACCCCUUUGCCCUCACUAUCAACAGCUCGCAGUCAAG | -0.336
GGUCACGUCUCAAUCAACUCAUUCUCAGGAGUUUCCUCCUGCAUUUUCAACAGCUCGCAGUCAAG | 0.0134
GGUCACGUCUCAAUCAACUCUCAAGAGGGGGGGAAAACCCCUUUGCCCUCAAUAUCAACAGCUCGCAGUCAAG | -0.445
GGUCACGUCUCAAUCAACUCAUCCUCAGGAGUUUGCUCCUGUAUACUCAACAGCUCGCAGUCAAG | -0.167
GGUCACGUCUCAAUCAACUCUUUAGAGGGGGGGAAAACCCCUUUGCCCUCCACUUCAACAGCUCGCAGUCAAG | -0.0291
GGUCACGUCUCAAUCAACUCAUCUCCCAGGGAAAACCCUGGUAUUUUCAACAGCUCGCAGUCAAG | 0.16
GGUCACGUCUCAAUCAACUCAUCGCCCAGGGAAAUCCCUGGUUAUUUCAACAGCUCGCAGUCAAG | 0.101
GGUCACGUCUCAAUCAACUCUUCUCCAGGAGUUUCCUCCUGUAUUUUCAACAGCUCGCAGUCAAG | 0.219
GGUCACGUCUCAAUCAACUCUUCAGAGGGGGGGAAAACCCCUUUGCCCUCAAUAUCAACAGCUCGCAGUCAAG | 0.255
GGUCACGUCUCAAUCAACUCAUUUCCAGGAGUUUGCUCCUGCUUUUUCAACAGCUCGCAGUCAAG | 0.0326
GGUCACGUCUCAAUCAACUCUUUCUCAGGAGUUUACUCCUGUUAUCUCAACAGCUCGCAGUCAAG | 0.158
GGUCACGUCUCAAUCAACUCUAUCCCAGGAGUUUUCUCCUGCUAUCUCAACAGCUCGCAGUCAAG | 0.0911
GGUCACGUCUCAAUCAACUCUUCUCCAGGAGUUUUCUCCUGCAUUUUCAACAGCUCGCAGUCAAG | -0.0804
GGUCACGUCUCAAUCAACUCUACAGAGGGGGGGAAAACCCCUUUACCCUCAUUAUCAACAGCUCGCAGUCAAG | 0.0252
GGUCACGUCUCAAUCAACUCAUUUUCAGGAGUUUGCUCCUGCAUAUUCAACAGCUCGCAGUCAAG | 0.028
GGUCACGUCUCAAUCAACUCAUUUCCAGGAGUUUACUCCUGUUUAGUCAACAGCUCGCAGUCAAG | -0.0751
GGUCACGUCUCAAUCAACUCAGUCCCCAGGGAAAACCCUGGUUUUUUCAACAGCUCGCAGUCAAG | 0.518
GGUCACGUCUCAAUCAACUCUUCUCCAGGAGUUUACUCCUGCAAUUUCAACAGCUCGCAGUCAAG | -0.0312
GGUCACGUCUCAAUCAACUCAUCCCCCAGGGAAAACCCUGGCUUACUCAACAGCUCGCAGUCAAG | 0.149
GGUCACGUCUCAAUCAACUCAUUCUCCAGGGAAAUCCCUGGCUAACUCAACAGCUCGCAGUCAAG | -0.115
